Data: PubChem BioAssay AID686978 (National Center for Advancing Translational Sciences (NCATS), 2013)
The campaign covered roughly 420,000 compounds. About 64,000 (15%) were called active. This list was built around the results that the source calls inconclusive (neither active nor inactive); the mix of calls is not that of the screen. Calls come from the whole dose curve; as a rule, active = well fitted inhibition curve with a large enough effect; inconclusive = small, poorly fitted or top-dose-only effect; inactive = flat fitted curve, though single readings scatter. No potency is given beside an inconclusive call; the fits are too rough.

experiment: qHTS for Inhibitors of human tyrosyl-DNA phosphodiesterase 1 (TDP1): qHTS in cells in absence of CPT; details: DT40 Tdp1-/- hTDP1 cells, no CPT, ATP luminescence, 48 h; activity change, negative = growth inhibition: at 46.2 µM (top of the series); note: nearly all actives have a fitted effect of over 55% in size
Summary of the method: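 Readout: luminescence from CellTiter-Glo after 30 min in the dark at RT. Cells: DT40 Tdp1-/- with stable hTDP1, 400/well. Exposure: compounds alone, ≥48 hr, 37 °C.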
% is set by controls: 0 for no effect and ±100 for the full control effect; potency is the fitted concentration of half-maximal effect; tags give direction and shape of the fitted curve.

Which Potency does the source give for `COc1cc(Nc2c(C#N)cnc3cc(OCCCN4CCN(C)CC4)c(OC)cc23)c(Cl)cc1Cl` here?
Its Potency is inconclusive [inhibitor, full curve, poor fit].

For `Cc1ccc(Cn2c(=O)n(CC3CCC(C(=O)N4CCOCC4)CC3)c(=O)c3sccc32)cc1` (centres undefined), which Potency is on record?
The Potency was active: 16.4 µM.

Which “activity change, negative = growth inhibition” value does the source give for `COc1ccc(C(=O)OCC(=O)NCC2CCCO2)cc1[N+](=O)[O-]` (centres undefined) here?
The value was inactive: 12.4%.

With `CCOc1ccccc1C(=O)NC1CC2CCCC(C1)N2C1CC1` (centres undefined) as the compound, how does the “activity change, negative = growth inhibition” value read?
The value was inactive: -24.1%.

For `CCOC(=O)C1=C(CN2CCN(C(=O)c3ccco3)CC2)NC(=O)NC1c1ccc(Cl)cc1` (centres undefined), which Potency is on record?
Its Potency is inconclusive [inhibitor, single point].

With `O=C(OCC1OC(n2cnc3c(N(C(=O)c4ccccc4)C(=O)c4ccccc4)ncnc32)C(O)C1F)c1ccccc1` (centres undefined) as the compound, how does the Potency read?
The Potency was inconclusive [inhibitor, single point].

Which Potency does the source give for `Cc1ccccc1S(=O)(=O)NC(=O)C1(C)CCN1C(=O)C1(c2ccccc2)CCCC1` (centres undefined) here?
The Potency was inconclusive [inhibitor, single point].

With `O=C(c1ccc(Oc2ccccc2)cc1)c1nc2c(n1O)CCCC2` as the compound, how does the “activity change, negative = growth inhibition” value read?
Its value is inactive: -24.2%.

Which Potency does the source give for `COc1ccc(N(C(=O)CNC(=O)c2ccco2)C(C(=O)NCC2CCCO2)c2ccccc2)cc1OC` (centres undefined) here?
The Potency was inconclusive [inhibitor, partial curve].

With `O=C(CSc1nnc(NC2CCCCC2)s1)Nc1ccc2c(c1)C(=O)c1ccccc1C2=O` as the compound, how does the Potency read?
The Potency was inconclusive [inhibitor, single point].

Which Potency does the source give for `CC(Sc1ccc(Cl)cc1)C(=O)NCC(c1ccco1)N1CCCCC1` (centres undefined) here?
Its Potency is inconclusive [inhibitor, single point].

Which Potency does the source give for `CCc1nc2ccccc2c(C(=O)NCc2ccc(OC)cc2)c1C` here?
Its Potency is inconclusive [inhibitor, single point].

With `O=C(CC1Oc2ccc(Cl)cc2NC1=O)NCc1ccccc1` (centres undefined) as the compound, how does the “activity change, negative = growth inhibition” value read?
Its value is inactive: -3.5%.

For `CCc1ccc(S(=O)(=O)N2CCN(Cc3ccco3)CC2)cc1`, which activity change, negative = growth inhibition is on record?
Its activity change, negative = growth inhibition is inconclusive: -33.7% [inhibitor].

For `CCOc1cc(NC(=O)CCl)c(OCC)cc1NC(C)=O`, which Potency is on record?
The Potency was active: 16.4 µM.

For `c1ccc(CSc2ccc(-c3ccco3)nn2)cc1`, which “activity change, negative = growth inhibition” value is on record?
The value was inactive: -18.9%.

For `Clc1ccc(Cl)c(-c2nn3c(Cn4cnc5ccccc54)nnc3s2)c1`, which Potency is on record?
The Potency was inconclusive [inhibitor, single point].

With `CC1Cc2cc(S(=O)(=O)NCCc3ccccc3)ccc2N1C(=O)C1CC1` (centres undefined) as the compound, how does the Potency read?
Its Potency is active: 14.6 µM.

Which Potency does the source give for `Cc1cc(=O)oc2cc(OC(=O)c3nn(C(C)C)c(=O)c4ccccc34)ccc12` here?
Its Potency is inconclusive [inhibitor, partial curve, poor fit].
